In PubChem BioAssay AID2147 (National Center for Advancing Translational Sciences (NCATS), 2009):
About 3,600 (1.6%) of roughly 230,000 compounds were called active. The shares of active, inactive and inconclusive entries below differ from those in the screen. Calls come from the whole dose curve; as a rule, active = well fitted inhibition curve with a large enough effect (not every such curve was filed as active); inconclusive = small, poorly fitted or top-dose-only effect, or another doubt; inactive = no such curve, though single readings can be large or run the other way. Potencies of inconclusive entries are doubtful fits and often do not repeat.

These molecules were tested against Lysine-specific demethylase 4E (Homo sapiens) (UniProt B2RXH2) (assay: qHTS Assay for Inhibitors of Human Jumonji Domain Containing 2E (JMJD2E)). Conditions: JMJD2E catalytic domain, FDH-coupled NADH fluorescence (FDH is formaldehyde dehydrogenase); series mostly up to 57.1 µM.
Note: nearly all actives have a fitted effect of over 50% in size.
Potency is the fitted concentration of half-maximal effect; tags give direction and shape of the fitted curve.

Sequence of UniProt B2RXH2 (B2RXH2 whole entry, looked up, the tested form may be a part): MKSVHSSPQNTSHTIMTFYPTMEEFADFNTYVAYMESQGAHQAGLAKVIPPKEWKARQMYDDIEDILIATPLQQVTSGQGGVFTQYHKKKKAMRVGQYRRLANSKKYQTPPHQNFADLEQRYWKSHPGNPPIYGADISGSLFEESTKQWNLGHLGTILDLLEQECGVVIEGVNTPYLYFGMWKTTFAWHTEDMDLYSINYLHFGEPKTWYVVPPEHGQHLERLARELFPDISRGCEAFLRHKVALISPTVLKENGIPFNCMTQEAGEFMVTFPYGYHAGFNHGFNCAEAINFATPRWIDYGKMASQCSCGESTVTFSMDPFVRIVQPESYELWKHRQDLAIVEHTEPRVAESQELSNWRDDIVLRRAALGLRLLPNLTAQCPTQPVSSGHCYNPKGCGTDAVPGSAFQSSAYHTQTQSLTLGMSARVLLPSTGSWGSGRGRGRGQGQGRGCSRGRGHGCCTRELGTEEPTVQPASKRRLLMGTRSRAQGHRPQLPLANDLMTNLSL

| Structure (SMILES) | Potency |
| --- | --- |
| Cc1cc(Cl)ccc1NC(=O)CSc1nnc(-c2ccncc2)n1Cc1ccco1 | inconclusive: 28.2 µM [inhibitor, single point] |
| CCOc1ccc(C(=O)Nc2ccccc2OC(F)F)cc1 | inactive |
| Cn1c(SCC(=O)Nc2ccc3nc(SCC(=O)N4CCCC4)sc3c2)nnc1-c1ccccc1 | inactive |
| Cc1nn(C)c(Cl)c1CN1CCCC(CO)(Cc2ccccc2)C1 (stereo unspecified) | inactive |
| C/C(=N\NC(=O)Cc1cccn1C)c1ccc2ccccc2c1 | inconclusive: 39.8 µM [inhibitor, single point] |
| CSc1n[nH]c2nc3c(c(=O)n12)C1(CCCCC1)Cc1ccccc1-3 | inconclusive: 7.94 µM [inhibitor, partial curve] |
| FC(F)(F)c1ccccc1-c1nccc(NCc2ccccc2)n1 | inactive |
| COC(=O)Sc1nnc(-c2ccc(Br)cc2)o1 | inconclusive: 31.6 µM [inhibitor, single point] |
| CCCCc1c2ccccc2nc2[nH]c3ccccc3c12 | inconclusive: 25.1 µM [inhibitor, single point] |
| O=C(c1ccco1)N1CCN(C(c2ccccc2Cl)c2nnnn2Cc2cccs2)CC1 (stereo unspecified) | inactive |
| CCOC(=O)c1cnc(-n2[nH]c(C)cc2=O)[nH]c1=O | inconclusive: 25.1 µM [inhibitor, single point] |
| Nc1nc(N)nc(-c2ccccc2O)n1 | inactive |
| Cc1ccc2nc(SCC(=O)Nc3cccc(S(=O)(=O)N(C)C)c3)[nH]c2c1 | inconclusive: 28.2 µM [inhibitor, single point] |
| O=C(Oc1csc(=S)n1C(=O)c1ccccc1)c1ccccc1 | inactive |
| CCOC(=O)C1(CC2CCCCO2)CCN(S(=O)(=O)c2ccc(C)s2)CC1 (stereo unspecified) | inactive |
| COc1cc(/C=N/NC(=O)c2ccc(Cl)c(S(N)(=O)=O)c2)ccc1OCC(N)=O | inconclusive: 35.5 µM [inhibitor, single point] |
| CC(=O)OC1CCC2(C)C3=C(CCC2C1(C)C)[C@@]1(C)CCC(C(C)CCC=C(C)C)[C@@]1(C)CC3 (stereo partly specified) | inactive |
| COc1ccc(C2=CC(c3ccc(Cl)cc3)n3cnnc3N2)cc1OC (stereo unspecified) | inconclusive: 28.2 µM [inhibitor, partial curve] |
| COc1ccccc1/C=C/C(=O)Nc1ccc2c(c1)CCC2 | inconclusive: 39.8 µM [inhibitor, single point] |
| C/C(=N\Nc1ccc([N+](=O)[O-])cc1[N+](=O)[O-])C(C)(C)C(C(=O)O)C(=O)O | inconclusive: 35.5 µM [inhibitor, single point] |
| Cc1ccc(-n2c(Cl)c(Cl)[nH]c(=O)c2=O)cc1 | inconclusive: 8.91 µM [inhibitor, single point] |
